This is one part of the list. These are further read-outs of the screen, such as a control signal, another cell line or another target. No call is given for them. Most of these compounds were active or inconclusive in the main read-out, so they are no random draw. Potencies come from curve fits of mixed quality, noted in brackets.
Assay: qHTS Assay for Lipid Storage Modulators (AID 1519)
Settings: Drosophila S3 cells, BODIPY lipid droplet/cell ratio, laser cytometry; measured here: cell number channel AC50; cells loaded with oleic acid
How it was run: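 Cells seeded at 5,000 per well were treated with compounds over a concentration series and loaded with oleic acid (400 uM, as added). Lipid droplet fluorescence (488 nm excitation, 500-530 nm channel) was read by laser-scanning cytometry and normalized to 20 uM Triacsin C.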
Tags give direction and shape of the fitted curve.

Row | Structure (SMILES) | AC50
1 | COc1cc2c(cc1OC)C1C(=O)c3ccc4c(c3OC1CO2)C=CC(C)(C)O4 (stereo not given) | 0.178 µM [falling, full curve, poor fit]
2 | CN(Cc1ccco1)c1ncnc2ccc(-c3ccccc3C#N)cc12 | 0.891 µM [rising, full curve, poor fit]
3 | COc1ccccc1CNc1cc(-c2ccccc2C)ncn1 | 2.51 µM [rising, partial curve]
4 | COc1ccc(-c2nc3cnc(N4CCOCC4)nc3n(Cc3cccs3)c2=O)cc1 | 2.51 µM [rising, full curve, poor fit]
5 | COc1c2ccoc2nc2c(OC)c(OCC(O)C(C)(C)O)ccc12 (stereo not given) | 2 µM [rising, full curve]
6 | NC[C@@H]1O[C@H](c2ccccc2)Cc2c1ccc(O)c2O | 6.31 µM [rising, full curve]
7 | CC(=O)[C@@H]1[C@H]2[C@H](C(=O)[C@H]3OC[C@@H]2O3)[C@H]2C=Cc3ccccc3N21 | 25.1 µM [rising, partial curve]
8 | COc1ncc2nc(-c3ccccc3)c(=O)n(CCC#N)c2n1 | 1.78 µM [rising, full curve]
9 | O=C(O)C1CN(CCCP(=O)(O)O)CCN1 (stereo not given) | 15.8 µM [falling, partial curve, poor fit]
10 | CCOC(=O)c1ccc(OC(=O)CCCCCN=C(N)N)cc1 | 28.2 µM [rising, partial curve, poor fit]
11 | c1ccc2sc(N3CCN(Cc4ccc5c(c4)OCO5)CC3)nc2c1 | 12.6 µM [rising, full curve]
12 | COC(=O)Nc1ccc2[nH]cc(CCNC(C)=O)c2c1 | 5.62 µM [rising, partial curve, poor fit]
13 | C=CC1=C(C)C2=Cc3c(C=C)c(C)c4[n]3[Sn+2][n]3c(c(C)c(CCC(=O)O)c3=CC3=NC(=C4)C(C)=C3CCC(=O)O)=CC1=N2 | 0.158 µM [rising, full curve, poor fit]
14 | COc1ccc2[nH]cc(CCNc3ncncc3-c3ccc(C(=O)N(C)C)cc3)c2c1 | 0.126 µM [rising, full curve]
15 | CN(C)C(=O)c1ccc(-c2cncnc2NCc2cccnc2)cc1 | 3.16 µM [rising, full curve]
16 | C=CC(C)(C)c1[nH]c2ccccc2c1C1=C(O)C(=O)C(c2c[nH]c3c(CC=C(C)C)cccc23)=C(O)C1=O | 15.8 µM [rising, partial curve]
17 | CC(C)=CCc1c2c(c3occ(-c4ccc(O)c(O)c4)c(=O)c3c1O)C=CC(C)(C)O2 | 39.8 µM [falling, single point]
18 | O=c1cc(-c2ccc(O)cc2)oc2cccc(O)c12 | 28.2 µM [rising, partial curve, poor fit]
19 | O=c1c(-c2ccc(Cl)cc2)nc2cnc(N3CCOCC3)nc2n1Cc1ccc(F)cc1 | 1.41 µM [rising, full curve, poor fit]
20 | COc1ccc(Oc2ncc3nc(-c4ccc(Cl)cc4)c(=O)n(C)c3n2)cc1 | 0.0562 µM [rising, full curve, poor fit]
21 | Fc1ccc(Nc2nc(-c3ccoc3)nc3ccccc23)cc1 | 0.794 µM [rising, full curve, poor fit]
22 | O=C1c2ccccc2C(=O)c2c1ccc(O)c2O | 25.1 µM [rising, partial curve]
23 | COC(=O)N1CCC2(CC1)CCN(c1ncccn1)CC2 | 1.26 µM [rising, full curve, poor fit]
24 | N#CCCn1c(=O)c(-c2cccs2)nc2cnc(Nc3ccccc3)nc21 | 1.78 µM [rising, full curve]
25 | COc1cccc(-c2cc(NCc3ccccc3OC)ncn2)c1 | 0.2 µM [rising, full curve]

Source: PubChem BioAssay (NCATS)
